Test results: the supplement of paper PMC4967469
IC50 is the fitted dose that halves viability relative to control wells, and lower means more sensitive; where the fit passes the top or lowest dose, that dose stands as a limit. AUC sums up the same curve from the lowest dose to the 256-fold higher top dose; values near 1 show little effect. For part of these data: An inferred top dose was derived from the fitted curves, not read from the paper. For part of these data: Drugs with an entry number were screened twice under separate entries, and the two screens often disagree.

How the values were obtained:
Assay in all cases: Viability of human cancer cell lines after 72 h of drug (GDSC screen)
LFM-A13 = compound: C/C(O)=C(\C#N)C(=O)Nc1cc(Br)ccc1Br [LFM-A13]; details: top dose 16 µM; top dose inferred
Experimental: (§1)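 Human cancer cell lines in 384-well plates, medium with 10% serum, drug for 72 h over a 256-fold dose range (nine 2-fold or five 4-fold steps up to the top dose). Adherent lines were fixed and stained with the nucleic acid dye Syto60, suspension lines read with resazurin; signal relative to control wells, capped at 0 and 100%. One two-parameter sigmoid per drug and line, fitted in a mixed model over all curves with the slope shared within a line.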

TW-37 = compound: CC(C)c1ccccc1Cc1cc(C(=O)Nc2ccc(S(=O)(=O)c3ccccc3C(C)(C)C)cc2)c(O)c(O)c1O [TW-37]; details: top dose 5 µM
Experimental: as §1

Bicalutamide = compound: CC(O)(CS(=O)(=O)c1ccc(F)cc1)C(=O)Nc1ccc(C#N)c(C(F)(F)F)c1 [Bicalutamide]; details: top dose inferred
Experimental: as §1

AUY922 = compound: CCNC(=O)c1noc(-c2cc(C(C)C)c(O)cc2O)c1-c1ccc(CN2CCOCC2)cc1 [AUY922]; details: top dose 0.256 µM; top dose inferred
Experimental: as §1

KIN001-270 = compound: Cc1ccc(Nc2cc(-c3cccc(N4C(=O)c5ccccc5C4=O)c3)ncn2)cc1NS(C)(=O)=O [KIN001-270]; details: top dose 20 µM; top dose inferred
Experimental: as §1

Nilotinib = compound: Cc1cn(-c2cc(NC(=O)c3ccc(C)c(Nc4nccc(-c5cccnc5)n4)c3)cc(C(F)(F)F)c2)cn1 [Nilotinib]; details: top dose 2 µM
Experimental: as §1

GNF-2 = compound: NC(=O)c1cccc(-c2cc(Nc3ccc(OC(F)(F)F)cc3)ncn2)c1 [GNF-2]; details: top dose 1.28 µM; top dose inferred
Experimental: as §1

Gemcitabine = compound: Nc1ccn([C@@H]2O[C@H](CO)[C@@H](O)C2(F)F)c(=O)n1 [Gemcitabine]; details: top dose 1.024 µM
Experimental: as §1

T0901317 = compound: O=S(=O)(c1ccccc1)N(CC(F)(F)F)c1ccc(C(O)(C(F)(F)F)C(F)(F)F)cc1 [T0901317]; details: top dose 10.24 µM; top dose inferred
Experimental: as §1

MP470 = compound: S=C(NCc1ccc2c(c1)OCO2)N1CCN(c2ncnc3c2oc2ccccc23)CC1 [MP470]; details: top dose 20 µM; top dose inferred
Experimental: as §1

[1] = top dose 1.024 µM, screen: GDSC drug entry 150
[2] = top dose 10 µM, screen: GDSC drug entry 1502

Cell Line	AUC (LFM-A13)	IC50 (LFM-A13)	AUC (TW-37)	IC50 (TW-37)	AUC (Bicalutamide; [1])	IC50 (Bicalutamide; [1])	AUC (Bicalutamide; [2])	IC50 (Bicalutamide; [2])	AUC (AUY922)	IC50 (AUY922)	AUC (KIN001-270)	IC50 (KIN001-270)	AUC (Nilotinib)	IC50 (Nilotinib)	AUC (GNF-2)	IC50 (GNF-2)	AUC (Gemcitabine)	IC50 (Gemcitabine)	AUC (T0901317)	IC50 (T0901317)	AUC (MP470)	IC50 (MP470)
SF539 (glioma, adherent)	0.98	> 16000 nM	0.572	481 nM	0.99	> 1020 nM	0.982	> 10000 nM	0.598	28.8 nM	0.972	> 20000 nM	0.988	> 2000 nM	0.988	> 1280 nM	0.194	8.92 nM	0.988	> 10200 nM	0.98	> 20000 nM
CAS-1 (glioma, adherent)	0.974	> 16000 nM	0.765	2500 nM	0.971	> 1020 nM	0.967	> 10000 nM	0.733	96.3 nM	0.981	> 20000 nM	0.981	> 2000 nM	0.973	> 1280 nM	0.771	540 nM	0.982	> 10200 nM	0.867	> 20000 nM
ETK-1 (biliary tract, adherent)	0.974	> 16000 nM	0.649	860 nM	0.983	> 1020 nM	0.978	> 10000 nM	0.6	31.3 nM	0.963	> 20000 nM	0.977	> 2000 nM	0.904	> 1280 nM	0.258	11.7 nM	0.98	> 10200 nM	0.588	2250 nM
NB-4 (acute myeloid leukaemia, suspension)	0.975	> 16000 nM	0.562	445 nM	0.991	> 1020 nM	0.991	> 10000 nM	0.491	15.2 nM	0.973	> 20000 nM	0.96	> 2000 nM	0.991	> 1280 nM	0.068	< 4 nM	0.93	> 10200 nM	0.966	> 20000 nM
NCI-H1836 (small cell lung carcinoma, suspension)	0.952	> 16000 nM	0.925	> 5000 nM	0.986	> 1020 nM	0.951	> 10000 nM	0.961	> 256 nM	0.971	> 20000 nM	0.988	> 2000 nM	0.986	> 1280 nM	0.9	> 1020 nM	0.967	> 10200 nM	0.67	3930 nM
SF126 (glioma, adherent)	0.957	> 16000 nM	0.316	92.6 nM	0.986	> 1020 nM	0.983	> 10000 nM	0.553	22.5 nM	0.985	> 20000 nM	0.976	> 2000 nM	0.943	> 1280 nM	0.234	10.3 nM	0.983	> 10200 nM	0.961	> 20000 nM
MZ1-PC (pancreas, adherent)	0.955	> 16000 nM	0.579	540 nM	0.972	> 1020 nM	0.977	> 10000 nM	0.49	14.9 nM	0.979	> 20000 nM	0.975	> 2000 nM	0.907	> 1280 nM	0.719	316 nM	0.971	> 10200 nM	0.944	> 20000 nM
A388 (skin, adherent)	0.929	> 16000 nM	0.623	719 nM	0.982	> 1020 nM	0.973	> 10000 nM	0.532	19.9 nM	0.949	> 20000 nM	0.978	> 2000 nM	0.956	> 1280 nM	0.187	6.22 nM	0.978	> 10200 nM	0.952	> 20000 nM
P31-FUJ (acute myeloid leukaemia, suspension)	0.996	> 16000 nM	0.834	2240 nM	0.996	> 1020 nM	0.996	> 10000 nM	0.928	248 nM	0.996	> 20000 nM	0.995	> 2000 nM	0.996	> 1280 nM	0.993	> 1020 nM	0.967	> 10200 nM	0.877	12200 nM
CP66-MEL (melanoma, adherent)	0.955	> 16000 nM	0.724	1500 nM	0.982	> 1020 nM	0.983	> 10000 nM	0.694	61 nM	0.981	> 20000 nM	0.986	> 2000 nM	0.986	> 1280 nM	0.982	> 1020 nM	0.978	> 10200 nM	0.932	> 20000 nM
MC-CAR (haematopoietic neoplasm, suspension)	0.966	> 16000 nM	0.397	168 nM	0.985	> 1020 nM	0.983	> 10000 nM	0.584	26.4 nM	0.962	> 20000 nM	0.981	> 2000 nM	0.989	> 1280 nM	0.235	12.2 nM	0.97	> 10200 nM	0.97	> 20000 nM
KMOE-2 (acute myeloid leukaemia, suspension)	0.963	> 16000 nM	0.481	279 nM	0.989	> 1020 nM	0.971	> 10000 nM	0.648	39.2 nM	0.94	> 20000 nM	0.888	1830 nM	0.99	> 1280 nM	0.646		0.921	> 10200 nM	0.915	> 20000 nM
JVM-2 (lymphoid neoplasm, suspension)	0.973	> 16000 nM	0.574	523 nM	0.981	> 1020 nM	0.971	> 10000 nM	0.866	> 256 nM	0.943	> 20000 nM	0.938	> 2000 nM	0.982	> 1280 nM	0.982	> 1020 nM	0.946	> 10200 nM	0.909	> 20000 nM
KMS-12-BM (myeloma, suspension)	0.989	> 16000 nM	0.484	285 nM	0.991	> 1020 nM			0.686	47.8 nM	0.984	> 20000 nM	0.963	> 2000 nM	0.991	> 1280 nM	0.807	418 nM	0.921	> 10200 nM	0.839	10400 nM
RL (B-cell lymphoma, suspension)	0.989	> 16000 nM	0.42	192 nM	0.99	> 1020 nM	0.937	> 10000 nM	0.855	179 nM	0.99	> 20000 nM	0.99	> 2000 nM	0.979	> 1280 nM	0.99	> 1020 nM	0.979	> 10200 nM	0.876	17100 nM
NCI-H847 (small cell lung carcinoma, adherent)	0.992	> 16000 nM	0.404	180 nM	0.993	> 1020 nM	0.992	> 10000 nM	0.788	89.9 nM	0.937	> 20000 nM	0.993	> 2000 nM	0.993	> 1280 nM	0.437	44.5 nM	0.9	8670 nM	0.848	10800 nM
OS-RC-2 (kidney, adherent)	0.941	> 16000 nM	0.619	768 nM	0.971	> 1020 nM	0.975	> 10000 nM	0.616	38.6 nM	0.971	> 20000 nM	0.954	> 2000 nM	0.971	> 1280 nM	0.316	15.5 nM	0.974	> 10200 nM	0.915	> 20000 nM
YT (lymphoid neoplasm, suspension)	0.983	> 16000 nM	0.576	488 nM	0.991	> 1020 nM	0.987	> 10000 nM	0.462	12.8 nM	0.894	17600 nM	0.911	> 2000 nM	0.958	> 1280 nM	0.892	884 nM	0.971	> 10200 nM	0.932	> 20000 nM
QIMR-WIL (acute myeloid leukaemia, suspension)	0.957	> 16000 nM	0.407	175 nM	0.985	> 1020 nM	0.983	> 10000 nM	0.432	10.5 nM	0.945	> 20000 nM	0.986	> 2000 nM	0.985	> 1280 nM	0.035	< 4 nM	0.942	> 10200 nM	0.578	2030 nM
D-502MG (glioma, adherent)	0.969	> 16000 nM	0.845	> 5000 nM	0.977	> 1020 nM	0.947	> 10000 nM	0.892	> 256 nM	0.956	> 20000 nM	0.976	> 2000 nM	0.975	> 1280 nM	0.978	> 1020 nM	0.974	> 10200 nM	0.969	> 20000 nM
MPP-89 (mesothelioma, adherent)	0.979	> 16000 nM	0.726	1690 nM	0.972	> 1020 nM	0.934	> 10000 nM	0.735	93.4 nM	0.982	> 20000 nM	0.93	> 2000 nM	0.972	> 1280 nM	0.77	508 nM	0.965	> 10200 nM	0.953	> 20000 nM
